Results from ChEMBL document CHEMBL4888484, “Replenishing the malaria drug discovery pipeline: Screening and hit evaluation of the MMV Hit Generation Library 1 (HGL1) against asexual blood stage Plasmodium falciparum ,using a nano luciferase reporter read-out” (2022).
Screen size: about 150,000 compounds; about 540 (0.36%) showed an effect of 50% or more. This is one part of the list.

The compounds below were run on Plasmodium falciparum (assay: Primary screen in NF54 nanoGlo assay, in single point, at 2uM, 72h; a lower Z score goes with more inhibition). Settings: timepoint 72 hour.
Format: functional, Erythrocyte

| Compound | % Inhibition [%] | Z score |
| --- | --- | --- |
| O=C(Cn1cnc2c1CCCC2)N1CCC[C@H](O)CC1 | 5 | -0.69 |
| CCc1[nH]nc(-c2cccc(F)c2)c1NC(=O)Nc1cc(OC)cc(OC)c1 | -9 | 1.15 |
| O=c1n(Cc2cnoc2C2CC2)nc2cnccn12 | -5 | 0.83 |
| O=S(=O)(Nc1ncccc1N1CCOCC1)c1ccccc1F | -2 | 0.38 |
| Cc1cc(C)c(CN2CC[C@H](NS(=O)(=O)N(C)C)[C@@H](O)C2)cc1C | 0 | 0.03 |
| CS(=O)(=O)CCNC(=O)NCCOc1ccc(F)cc1F | -1 | 0.11 |
| C[C@H](O)CN(C)S(=O)(=O)Cc1ccc(F)c(Cl)c1 | 0 | 0.01 |
| CC(C)Oc1cnn(-c2ccccc2)c(=O)c1Nc1cccc(C(=O)NCc2ccco2)c1 | -16 | 2.3 |
| O=C(CCc1cccc(OC(F)F)c1)N1CCN2C[C@@H](F)C[C@H]2C1 | 2 | -0.28 |
| CNc1nc(C)cc(C(=O)N(CCc2cccc(F)c2)C2CC2)n1 | -9 | 1.23 |
| CCOc1cc([C@H]2Nc3ccccc3C(=O)N2c2ccccc2F)ccc1OCc1ccccc1Cl | -7 | 0.89 |
| Cc1cc(C(=O)N2CCC[C@@H]2Cc2c(F)cccc2Cl)cc(O)n1 | -3 | 0.43 |
| CCS(=O)(=O)c1cccc(-c2nc([C@@H]3CCCO3)no2)c1 | -6 | 0.93 |
| CC1CCCC(NC(=O)CN2CCN(C(=O)C3C4CCCC43)CC2)C1 (stereo not drawn) | -9 | 0.83 |
| Cc1csc(N(C(=O)c2ccoc2C)C2CC2)n1 | -6 | 0.81 |
| CCCc1cc(C(=O)N2CCN(C)[C@]3(CCC(=O)N(CC)CC3)C2)n(C)n1 | -7 | 1.27 |
| Cc1ccc(O[C@H]2CCOC[C@H]2NC(=O)CCCn2ccnc2)cn1 | -13 | 1.53 |
| C[C@H](NC(=O)Nc1nc(C(C)(C)C)ns1)C1=CCN(C)CC1 | -5 | 0.9 |
| C#CCOc1cc(CNC(=O)C2=CCCCC2)ccc1OC | -9 | 0.91 |
| Cc1ccc(C)c(-c2cc(C(=O)Nc3sc4c(c3C#N)CC[C@H](C)C4)c3ccccc3n2)c1 | 8 | -0.94 |
| O=C(NCCc1cn2cccnc2n1)c1cn(C2CCCCC2)nn1 | 0 | -0.04 |

| Compound | % Inhibition [%] | Z score |
| --- | --- | --- |
| Cn1c(CN2C[C@@H]3CC[C@H]2CN(Cc2ccncc2)C3)nc2ccccc21 | -1 | 0.14 |
| Cc1nnnn1Cc1nc2ccccc2s1 | -19 | 3.03 |
| CC(=O)N1CCOCC1C(=O)NC1CCCC1c1ccc(F)cc1 (stereo not drawn) | 0 | 0.01 |
| CN1CC[C@](C)(CNC(=O)c2ccc(OCc3ccccc3F)cc2)C1 | -10 | 1.85 |
| Cc1cc(C)n2ncc(CN(Cc3noc(C)n3)C(C)C)c2n1 | 2 | -0.17 |
| O=C(NCCc1ccc(Cl)cc1)c1nnc(Cc2ccc(F)cc2)o1 | 12 | -1.94 |
| Cc1cc(C)cc(CCC(=O)Nc2c(N(C)C)nc[nH]c2=O)c1 | -14 | 1.25 |
| CN(CC1CC1)c1ccc(S(C)(=O)=O)cc1C(F)(F)F | -4 | 0.63 |
| N#CCCCn1nnnc1-c1ccncc1 | 0 | -0.04 |
| Cc1ccc(-n2nc(C(=O)NCC3CC3)c(=O)n(Cc3cccc(Cl)c3)c2=O)cc1 | -1 | 0.18 |
| CCc1nnc(CNC(=O)[C@H](C)c2ccccc2F)s1 | 1 | -0.13 |
| COc1ccc2c(c1)N1CCN(c3cnccn3)CC1C(C(=O)NCc1ccccc1F)C2 (stereo not drawn) | 2 | -0.22 |
| Cc1cc(C)cc(C(=O)N2CCN(C(=O)N(C)C)[C@H]3CS(=O)(=O)C[C@H]32)c1 | -3 | 0.28 |
| CCn1cc(C2=NO[C@H](C(=O)Nc3ccc(C)c(F)c3)C2)c(C)n1 | -13 | 1.56 |
| O=C(Nc1ccc(Nc2ccccc2)cc1)c1ccc2c(c1)OCO2 | -8 | 1.53 |
| CC(C)(C)Cc1ccccc1C(=O)Nc1ncc2c(n1)CCOC2 | -11 | 1.66 |
| CCNC(=O)[C@@H]1C[C@H](NCc2ccc(C(F)(F)F)cc2)CN1Cc1ccccc1 | -5 | 0.59 |
| CCS(=O)(=O)Oc1cc(CN(Cc2ccco2)C(=O)C(C)C)ccc1OC | -22 | 3.16 |
| CN(C[C@H]1CCCOC1)C(=O)Nc1ccc2c(N(C)C)nccc2c1 | -6 | 1.02 |
| CC(C)C1CCCN(C(=O)C2CCCO2)CC1 (stereo not drawn) | -2 | 0.21 |
| Cc1nn(C)cc1N(C(=O)c1cnccn1)[C@@H](C(=O)NC1CCCCC1)c1cccc(F)c1 | -7 | 1.29 |

| Compound | % Inhibition [%] | Z score |
| --- | --- | --- |
| COc1ccc(C)cc1Cn1ncc(Br)c1C1CC1 | -2 | 0.28 |
| Cc1cnn(C2CN(Cc3c(C)noc3C)C2)c1 | -8 | 0.83 |
| CCN1C[C@@H](C(=O)Nc2ccccc2Oc2ccccc2)CC1=O | -8 | 0.77 |
| Cc1cc(C)c2nc(C3C(=O)c4ccccc4C3=O)cc(O)c2c1 | -16 | 2.2 |
| CCn1cc(C2=NN(c3cc(C)ccc3F)C(=O)C2)cn1 | -10 | 1.78 |
| CCOC(=O)c1cn(Cc2nc(C)cs2)c2nc(C)ccc2c1=O | -23 | 4.34 |
| Cc1c(CNC2CCCCCCC2)c(C(=O)O)c(C)n1Cc1c(F)cccc1Cl | -8 | 1.55 |
| Cc1ccc(CN(Cc2cc(=O)n(C)c(=O)n2C)C[C@H]2CCCO2)o1 | -1 | 0.07 |
| Cc1cc(F)cc(CN2[C@@H]3CN(C(=O)CCc4ccccc4)C[C@@H]3OCCS2(=O)=O)c1 | -10 | 1.77 |
| CCOc1ccccc1NC(=O)Cn1c(C)ncc(C(=O)NC2CCCC2)c1=O | 3 | -0.42 |
| c1ccc(COc2ccc(Nc3cnc4ccccc4n3)cc2)cc1 | -7 | 0.87 |
| O=C1CCC(C(=O)N2CCC(c3nc4ccccc4s3)CC2)=NN1 | -13 | 1.81 |
| CN(C)c1ccc(NC(=O)CN(Cc2ccccc2)C(=O)CN2C(=O)C(=O)c3ccccc32)cc1 | 19 | -2.33 |
| Cc1cccc(Br)c1C(=O)N[C@H]1CCCn2c(C)nnc21 | 1 | -0.23 |
| Cc1ccnc(NC(=O)c2occc2CN2c3ccccc3C[C@@H]2C)n1 | 3 | -0.34 |
| O=C1C[C@H](c2ccc(C(=O)O)cc2)c2snc(-c3ccc(F)cc3)c2N1 | 28 | -3.16 |
| O=C(Cc1ncccc1F)NC1(CN2CCN(c3ccc(F)cc3)CC2)CC1 | -7 | 1.18 |
| COc1ccc(NS(=O)(=O)c2cccc(C(=O)N3CCC3)c2)cc1Br | -4 | 0.35 |
| Cc1ccc(-c2cc(C(=O)N3CCN(Cc4ccc5c(c4)OCO5)CC3)c(C)[nH]2)cc1C | -8 | 0.99 |
| O=C(O)[C@H]1CCCN1c1nnc(-c2ccccc2)s1 | -15 | 1.43 |
| CC(C)OC(=O)Cn1ncc(=O)c2ccccc21 | -8 | 1.25 |

| Compound | % Inhibition [%] | Z score |
| --- | --- | --- |
| Cc1nnc(C(=O)N[C@H](C)CC2CCCCC2)s1 | -20 | 2.06 |
| CN(Cc1ccc2c(c1)OCO2)C(=O)c1ccsc1 | -14 | 1.44 |
| CCn1c(C)cc(C(=O)N2CCCC[C@@H]2CN)c1C | 3 | -0.37 |
| COCCOC[C@H](OC(=O)c1ccc(C#N)cc1)C(C)(C)C | 18 | -2.3 |
| CC(C)Nc1ncc(C(=O)N2CCN(c3nccs3)CC2)cn1 | -14 | 1.28 |
| CCC1CC(Nc2cccc(C(=O)O)n2)CCO1 (stereo not drawn) | 3 | -0.23 |
| CCCN(CCC)S(=O)(=O)N1CCC[C@H](c2ccncc2)CC1 | 0 | -0.04 |
| CCCn1cc(CNCC(c2cccs2)N2CCOC(C)C2)cn1 (stereo not drawn) | -8 | 0.71 |
| O=C(C[C@H]1COCCN1Cc1cnc2ccccn12)c1ccco1 | 3 | -0.44 |
| CC(C)Cc1ncc2c(n1)CN(CCC(=O)Nc1ccsc1C(=O)O)C2 | 2 | -0.28 |
| Cc1ccc(OCCC(=O)N2CC[C@@H](N)C2)c(C)c1 | -10 | 1.5 |
| O=C(NCCN1CCCC1=O)c1coc(COc2ccc(F)cc2)n1 | 1 | -0.19 |
| Cc1cccc(N(C)C(=O)[C@H](C)n2nc(C)c3c(C)onc3c2=O)c1 | -7 | 0.73 |
| COc1ccccc1CC(=O)N1CCC(c2nc(C(=O)N3CCOCC3)c(C)o2)CC1 | -9 | 1.61 |
| O=C1N(Cc2ccc(F)c(F)c2)CCC[C@@]1(O)CNC1(c2ccccc2)CC1 | 3 | -0.3 |
| O=C(c1c[nH]nc1-c1ccccc1)N1CCCC1 | -4 | 0.84 |
| COc1cccc(-c2ccc(N3CCCN(C(=O)CN(C(=O)CC(C)C)C4CC4)CC3)nn2)c1 | -17 | 1.48 |
| O=C1CCCCN1CCCc1ncnn1-c1cccc2c1CCC2 | -13 | 1.74 |
| C=C1C(C(=O)Nc2ccc(C(C)(C)C)cc2)C1C(=O)Nc1ccc(C(C)(C)C)cc1 (stereo not drawn) | 27 | -3.64 |
| O[C@H]1CCN(c2cc(Oc3ccccc3Br)ncn2)C1 | 4 | -0.5 |
| COc1cccc(C(N)=O)c1OCC(=O)NC(C)C | 37 | -4.73 |
